# Laboratory results: the supplement of paper PMC8728848
# The other results are listed elsewhere or left out.
# Tests used:
# Assay in all cases: glycan array binding signal (z-score within array); higher = stronger binding
# Conditions in all cases: glycan notation: IUPAC condensed, linker removed
# [1] = molecular target: Neu5Ac(a2-6)Gal(b1-4)GlcNAc(b1-3)Gal(b1-4)GlcNAc(b1-3)GalNAc
# How it was run: (§1)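 The Consortium for Functional Glycomics database supplied 3228 glycan arrays, of which those lacking an available protein sequence were dropped. The binding signal, a within-array Z-score, was averaged across arrays of the same protein sequence and across linkers. Negative scores can be read as non-binding.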
# [2] = molecular target: Neu5Ac(a2-6)Gal(b1-4)GlcNAc(b1-3)Gal(b1-4)GlcNAc(b1-3)[Neu5Ac(a2-6)Gal(b1-4)GlcNAc(b1-3)Gal(b1-4)GlcNAc(b1-6)]GalNAc
# How it was run: as §1
# [3] = molecular target: Neu5Ac(a2-6)Gal(b1-4)GlcNAc(b1-3)Gal(b1-4)GlcNAc(b1-6)[Gal(b1-3)]GalNAc
# How it was run: as §1
# [4] = molecular target: Neu5Ac(a2-6)Gal(b1-4)GlcNAc(b1-3)Gal(b1-4)[Fuc(a1-3)]GlcNAc(b1-3)Gal(b1-4)[Fuc(a1-3)]GlcNAc
# How it was run: as §1
# [5] = molecular target: Neu5Ac(a2-6)Gal(b1-4)GlcNAc(b1-3)GalNAc
# How it was run: as §1
# [6] = molecular target: Neu5Ac(a2-6)Gal(b1-4)GlcNAc(b1-3)[Neu5Ac(a2-6)Gal(b1-4)GlcNAc(b1-6)]GalNAc
# How it was run: as §1
# [7] = molecular target: Neu5Ac(a2-6)Gal(b1-4)GlcNAc(b1-6)GalNAc
# How it was run: as §1
# [8] = molecular target: Neu5Ac(a2-6)Gal(b1-4)GlcNAc(b1-6)[Gal(b1-3)GlcNAc(b1-3)]Gal(b1-4)Glc
# How it was run: as §1
# [9] = molecular target: Neu5Ac(a2-6)Gal(b1-4)GlcNAc(b1-6)[Gal(b1-3)]GalNAc
# How it was run: as §1
# [10] = molecular target: Neu5Ac(a2-6)Gal(b1-4)GlcNAc6S
# How it was run: as §1
# Neu5Ac(a2-6)GalNAc = molecular target: Neu5Ac(a2-6)GalNAc
# How it was run: as §1
# [11] = molecular target: Neu5Ac(a2-6)GalNAc(b1-4)GlcNAc
# How it was run: as §1
# [12] = molecular target: Neu5Ac(a2-6)GalNAc(b1-4)GlcNAc6S
# How it was run: as §1
# [13] = molecular target: Neu5Ac(a2-6)GlcNAc(b1-4)GlcNAc
# How it was run: as §1
# [14] = molecular target: Neu5Ac(a2-6)GlcNAc(b1-4)GlcNAc(b1-4)GlcNAc
# How it was run: as §1
# Neu5Ac(a2-8)Neu5Ac = molecular target: Neu5Ac(a2-8)Neu5Ac
# How it was run: as §1
# [15] = molecular target: Neu5Ac(a2-8)Neu5Ac(a2-3)Gal(b1-3)GalNAc(b1-4)[Neu5Ac(a2-3)]Gal(b1-4)Glc
# How it was run: as §1
# [16] = molecular target: Neu5Ac(a2-8)Neu5Ac(a2-3)Gal(b1-3)GalNAc(b1-4)[Neu5Ac(a2-8)Neu5Ac(a2-3)]Gal(b1-4)Glc
# How it was run: as §1
# [17] = molecular target: Neu5Ac(a2-8)Neu5Ac(a2-3)Gal(b1-4)Glc
# How it was run: as §1
# [18] = molecular target: Neu5Ac(a2-8)Neu5Ac(a2-3)Gal(b1-4)GlcNAc
# How it was run: as §1
# [19] = molecular target: Neu5Ac(a2-8)Neu5Ac(a2-3)[Gal(b1-3)GalNAc(b1-4)]Gal(b1-4)Glc
# How it was run: as §1
# [20] = molecular target: Neu5Ac(a2-8)Neu5Ac(a2-3)[GalNAc(b1-4)]Gal(b1-4)Glc
# How it was run: as §1
# [21] = molecular target: Neu5Ac(a2-8)Neu5Ac(a2-8)Neu5Ac
# How it was run: as §1
# [22] = molecular target: Neu5Ac(a2-8)Neu5Ac(a2-8)Neu5Ac(a2-3)Gal(b1-4)Glc
# How it was run: as §1
# [23] = molecular target: Neu5Ac(a2-8)Neu5Ac(a2-8)Neu5Ac(a2-3)[Gal(b1-3)GalNAc(b1-4)]Gal(b1-4)Glc
# How it was run: as §1
# [24] = molecular target: Neu5Ac(a2-8)Neu5Ac(a2-8)Neu5Ac(a2-3)[GalNAc(b1-4)]Gal(b1-4)Glc
# How it was run: as §1
# [25] = molecular target: Neu5Ac(a2-8)Neu5Ac(a2-8)Neu5Ac(a2-8)Neu5Ac(a2-3)[GalNAc(b1-4)]Gal(b1-4)Glc
# How it was run: as §1
# [26] = molecular target: Neu5Ac(a2-8)Neu5Gc(a2-3)Gal(b1-4)GlcNAc
# How it was run: as §1
# [27] = molecular target: Neu5Ac(b2-6)Gal(b1-4)GlcNAc
# How it was run: as §1
# Neu5Ac(b2-6)GalNAc = molecular target: Neu5Ac(b2-6)GalNAc
# How it was run: as §1
# [28] = molecular target: Neu5Ac9Ac(a2-3)Gal(b1-3)GlcNAc
# How it was run: as §1
# [29] = molecular target: Neu5Ac9Ac(a2-3)Gal(b1-4)GlcNAc
# How it was run: as §1
# [30] = molecular target: Neu5Ac9Ac(a2-6)Gal(b1-4)GlcNAc
# How it was run: as §1
# [31] = molecular target: Neu5Gc(a2-3)Gal(b1-3)GlcNAc
# How it was run: as §1
# [32] = molecular target: Neu5Gc(a2-3)Gal(b1-3)[Fuc(a1-4)]GlcNAc
# How it was run: as §1
# Neu5Gc(a2-3)Gal(b1-4)Glc = molecular target: Neu5Gc(a2-3)Gal(b1-4)Glc
# How it was run: as §1
# [33] = molecular target: Neu5Gc(a2-3)Gal(b1-4)GlcNAc
# How it was run: as §1
# [34] = molecular target: Neu5Gc(a2-3)Gal(b1-4)GlcNAc(b1-3)Gal(b1-4)GlcNAc(b1-2)Man(a1-3)[Neu5Gc(a2-3)Gal(b1-4)GlcNAc(b1-3)Gal(b1-4)GlcNAc(b1-2)Man(a1-6)]Man(b1-4)GlcNAc(b1-4)GlcNAc
# How it was run: as §1
# [35] = molecular target: Neu5Gc(a2-3)Gal(b1-4)[Fuc(a1-3)]GlcNAc
# How it was run: as §1
# [36] = molecular target: Neu5Gc(a2-6)Gal(b1-4)GlcNAc
# How it was run: as §1
# Neu5Gc(a2-6)GalNAc = molecular target: Neu5Gc(a2-6)GalNAc
# How it was run: as §1
# [37] = molecular target: Neu5Gc(a2-8)Neu5Ac(a2-3)Gal(b1-4)GlcNAc
# How it was run: as §1
# [38] = molecular target: Neu5Gc(a2-8)Neu5Gc(a2-3)Gal(b1-4)GlcNAc
# How it was run: as §1
# [39] = molecular target: Neu5Gc(a2-8)Neu5Gc(a2-3)Gal(b1-4)GlcNAc(b1-3)Gal(b1-4)GlcNAc
# How it was run: as §1
# [40] = molecular target: Neu5Gc(a2-8)Neu5Gc(a2-6)Gal(b1-4)GlcNAc
# How it was run: as §1
# [41] = molecular target: Neu5Gc(b2-6)Gal(b1-4)GlcNAc
# How it was run: as §1
binder,measurement,setting,value
Mg3lysM (Mycosphaerella graminicola) (protein) APQNPPTSCSAAPQPTGTGSPGTVCGSTTFTNYTVKAGDTLGAIAKQYNSGVCDIAKVNGIDNPDYIKPDQVLSIPANCVTPDNTSCVKPVPVITNTCVLGVGSTYTVKSGDSFSAIATSFNITLASLEARNPQIPNYDLIFPGQVINTPLCPNSVCDSIGTYVIESGDIFYNLAQSNNVTVGQLESLNVNVNVTDIHPGDIIILPHNCHNITASA,glycan array binding signal (z-score),[1],-0.115
same,glycan array binding signal (z-score),[2],-0.015
same,glycan array binding signal (z-score),[3],0.12
same,glycan array binding signal (z-score),[4],-0.111
same,glycan array binding signal (z-score),[5],-0.079
same,glycan array binding signal (z-score),[6],0.067
same,glycan array binding signal (z-score),[7],-0.05
same,glycan array binding signal (z-score),[8],-0.073
same,glycan array binding signal (z-score),[9],0.04
same,glycan array binding signal (z-score),[10],-0.161
same,glycan array binding signal (z-score),Neu5Ac(a2-6)GalNAc,-0.07
same,glycan array binding signal (z-score),[11],-0.074
same,glycan array binding signal (z-score),[12],-0.084
same,glycan array binding signal (z-score),[13],-0.073
same,glycan array binding signal (z-score),[14],0.02
same,glycan array binding signal (z-score),Neu5Ac(a2-8)Neu5Ac,-0.023
same,glycan array binding signal (z-score),[15],0.117
same,glycan array binding signal (z-score),[16],-0.035
same,glycan array binding signal (z-score),[17],-0.08
same,glycan array binding signal (z-score),[18],-0.194
same,glycan array binding signal (z-score),[19],-0.119
same,glycan array binding signal (z-score),[20],-0.083
same,glycan array binding signal (z-score),[21],-0.038
same,glycan array binding signal (z-score),[22],-0.024
same,glycan array binding signal (z-score),[23],0.074
same,glycan array binding signal (z-score),[24],-0.012
same,glycan array binding signal (z-score),[25],-0.189
same,glycan array binding signal (z-score),[26],0.137
same,glycan array binding signal (z-score),[27],-0.255
same,glycan array binding signal (z-score),Neu5Ac(b2-6)GalNAc,-0.136
same,glycan array binding signal (z-score),[28],-0.117
same,glycan array binding signal (z-score),[29],-0.011
same,glycan array binding signal (z-score),[30],-0.085
same,glycan array binding signal (z-score),[31],-0.088
same,glycan array binding signal (z-score),[32],-0.09
same,glycan array binding signal (z-score),Neu5Gc(a2-3)Gal(b1-4)Glc,-0.078
same,glycan array binding signal (z-score),[33],-0.074
same,glycan array binding signal (z-score),[34],-0.076
same,glycan array binding signal (z-score),[35],-0.088
same,glycan array binding signal (z-score),[36],-0.051
same,glycan array binding signal (z-score),Neu5Gc(a2-6)GalNAc,-0.101
same,glycan array binding signal (z-score),[37],0.002
same,glycan array binding signal (z-score),[38],-0.115
same,glycan array binding signal (z-score),[39],0.054
same,glycan array binding signal (z-score),[40],-0.105
same,glycan array binding signal (z-score),[41],-0.006
